The results in this text go back to PMC5515408.

This is one part of the list. At the low end of the ranking the order means little.

The test system of this experiment is MYC (p64) + MAX (p21), in MYC:MAX. The experiment is described as follows: protein-binding microarray (anti-MAX antibody). The note with it: PBM: 15 mM Tris-HCl pH 7.5, 100 mM KCl, 0.075% NP40, 7.5 mM beta-mercaptoethanol, 375 ng/ul BSA, 8 ng/ul poly(dA-dT):(dA-dT), 550 ng complex, 60 min, room …; high values mean tight binding; double strand, one strand shown; sequences stand for … in CCGGC…TTAATAGCTAAGATTACTATATCGACG
For the sequence TGATCATCAGTA, the binding signal (log2 normalized fluorescence) came to 0.103. Turning to TGATCACCAGTA, the binding signal (log2 normalized fluorescence) amounted to 0.2.

With TGACCGCCTGTA, the binding signal (log2 normalized fluorescence) was found to be 0.344.

Consider TGATGCGGAGTA, for which the binding signal (log2 normalized fluorescence) turned out to be 0.0566. TGACTACGTGTA: the binding signal (log2 normalized fluorescence) worked out at 0.397.

With TGAACTGATGTA, the binding signal (log2 normalized fluorescence) was 0.109. Next, TGACGTGCTGTA: 0.416; TGACTTTTTGTA: 0.0526. In the case of TGAATCTTAGTA, the binding signal (log2 normalized fluorescence) is -0.0392. For the sequence TGACCCCAGGTA, the binding signal (log2 normalized fluorescence) was determined as 0.0661. As for CTCCACGTGGTA, the binding signal (log2 normalized fluorescence) came out at 0.737.

For CTATTTGGACCC, the binding signal (log2 normalized fluorescence) was -0.271. On to TGAGGGCCGGTA, for which the binding signal (log2 normalized fluorescence) was -0.0816. Take TGACCGATTGTA: the binding signal (log2 normalized fluorescence) is 0.114.

Consider TGAGCAGACGTA, for which the binding signal (log2 normalized fluorescence) stood at 0.132.

For the sequence TGACATTCAGTA, the binding signal (log2 normalized fluorescence) stood at 0.215. TGACGGGCGGTA: the binding signal (log2 normalized fluorescence) stood at 0.0481. To TGAATAGATGTA belongs -0.0846; to TGATCGAACGTA, -0.0311. As for TTTCACGTAGTA, the binding signal (log2 normalized fluorescence) stood at 0.331. For the sequence TGAGTCGGGGTA, the binding signal (log2 normalized fluorescence) was found to be 0.126. With TGACTCCTTGTA, the binding signal (log2 normalized fluorescence) amounted to 0.166. As to TGACACTGCGTA, the binding signal (log2 normalized fluorescence) turned out to be 0.302. Take TGACACGTGCTG: the binding signal (log2 normalized fluorescence) turned out to be 0.743. Turning to TGACTGTATGTA, the binding signal (log2 normalized fluorescence) came out at 0.247.

With TGAATTCACGTA, the binding signal (log2 normalized fluorescence) stood at 0.137. To TGACGTTGTGTA belongs 0.16; to TGAACGCACGTA, 0.455; to TGAATCATGGTA, 0.266. For TGAATGGGAGTA, the binding signal (log2 normalized fluorescence) is 0.171.

With TGAGCGGGAGTA, the binding signal (log2 normalized fluorescence) was -0.0733. For TGAGATCACGTA, the binding signal (log2 normalized fluorescence) amounted to 0.352.

TGAATCTTGGTA: the binding signal (log2 normalized fluorescence) was -0.0321. To TGACACGAAGTA belongs 0.165. Regarding TGACTTCGCGTA, the binding signal (log2 normalized fluorescence) is 0.119. CGACACATGGTT: the binding signal (log2 normalized fluorescence) was determined as 0.635. With TGCCCCGTGGTA, the binding signal (log2 normalized fluorescence) is 0.501. Regarding TGAGTCTTAGTA, the binding signal (log2 normalized fluorescence) was -0.124.

For the sequence TGACCATATGTA, the binding signal (log2 normalized fluorescence) came to 0.433. Next, TCGCACGTGGAA: 0.67. Regarding TGACGTAGTGTA, the binding signal (log2 normalized fluorescence) was -0.0016.

On to TGATCGGTAGTA, for which the binding signal (log2 normalized fluorescence) was -0.055. Next, TGACACGTTAAA: 0.508. On to TGACGGGGAGTA, for which the binding signal (log2 normalized fluorescence) was 0.207. To TGATAGTTCGTA belongs -0.254. On to TGATCTTGTGTA, for which the binding signal (log2 normalized fluorescence) stood at 0.116.

Take TTACACGTGCTA: the binding signal (log2 normalized fluorescence) came to 1.02.

Consider TGAAATGTGGTA, for which the binding signal (log2 normalized fluorescence) was 0.357. Regarding TGAGGTCCAGTA, the binding signal (log2 normalized fluorescence) was -0.0423.

Consider TGACGATTCGTA, for which the binding signal (log2 normalized fluorescence) came out at 0.0651. TGACCGTTCGTA: the binding signal (log2 normalized fluorescence) stood at 0.106. For the sequence TGACCTTACGTA, the binding signal (log2 normalized fluorescence) was determined as 0.252. In the case of TGATATGTTGTA, the binding signal (log2 normalized fluorescence) was -0.0776.

Turning to TGATTGAAAGTA, the binding signal (log2 normalized fluorescence) is -0.0313.

As to TGAAGCCTGGTA, the binding signal (log2 normalized fluorescence) amounted to 0.217. On to TGAGCGCGCGTA, for which the binding signal (log2 normalized fluorescence) stood at 0.28.

For the sequence ATTTACAAAGCA, the binding signal (log2 normalized fluorescence) worked out at 0.219. On to TGAAGTCCAGTA, for which the binding signal (log2 normalized fluorescence) was -0.111. Take TGAAAGTTTGTA: the binding signal (log2 normalized fluorescence) was determined as 0.00621. For the sequence TCTAACGTGGTA, the binding signal (log2 normalized fluorescence) came to 0.49.

As to TGACATCTGGTA, the binding signal (log2 normalized fluorescence) worked out at 0.311. Next, TGATTTCCTGTA: -0.0273.

As for TGAATAAGGGTA, the binding signal (log2 normalized fluorescence) is -0.0221. As for TGACGCACAGTA, the binding signal (log2 normalized fluorescence) stood at 0.353. Take TGACACGGAATA: the binding signal (log2 normalized fluorescence) was determined as 0.131. As for TGAGCAACCGTA, the binding signal (log2 normalized fluorescence) was 0.0353. Next, TGATCATATGTA: 0.297; TGACCGTTTGTA: 0.156. TGAAAGGTGGTA: the binding signal (log2 normalized fluorescence) amounted to 0.277. With TGACACGTTCTA, the binding signal (log2 normalized fluorescence) is 0.591.

As to TAACACGTGCTT, the binding signal (log2 normalized fluorescence) is 0.969.

Take TGATGCGCTGTA: the binding signal (log2 normalized fluorescence) worked out at 0.167.

Turning to TGACTTAAGGTA, the binding signal (log2 normalized fluorescence) is 0.0719. To TGACACGTCGCC belongs 0.382; to TGATGGCAGGTA, 0.106; to TGACATCGAGTA, 0.448. Consider TGACGGACAGTA, for which the binding signal (log2 normalized fluorescence) was determined as 0.124. Turning to TGAAAAGGAGTA, the binding signal (log2 normalized fluorescence) is -0.00388. On to TGACCTGAGGTA, for which the binding signal (log2 normalized fluorescence) turned out to be 0.194. As for TGAACGCTTGTA, the binding signal (log2 normalized fluorescence) stood at 0.172. To TGATTAAAAGTA belongs -0.0502. Consider TGCTGCGTGGTA, for which the binding signal (log2 normalized fluorescence) was 0.424.

Regarding TGAGAACCTGTA, the binding signal (log2 normalized fluorescence) came out at 0.205. With TGACACTGTGTA, the binding signal (log2 normalized fluorescence) came to 0.341. To TGAAGTAACGTA belongs 0.127. For TGAATCGGGGTA, the binding signal (log2 normalized fluorescence) was found to be 0.00877. On to TGACTGTTCGTA, for which the binding signal (log2 normalized fluorescence) was 0.108.
